This is one part of the list. No stated cut-off is given here; in the data, active = 3.2 or more and inactive = the rest. Most of these values are background signal.
biological target: SHP2 C-SH2 domain E139D; test: enrichment score (SH2-bound / input frequency) (ratio); bacterial display of known human phosphotyrosine sites (pTyr-Var adds point mutants) read by sequencing; higher = stronger binding; tyrosines were phosphorylated by kinases first; conditions: peptide library: pTyr-Var
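Further: displayed peptides selected on beads carrying the immobilized SH2 domain, with library peptides lacking any tyrosine serving as negative controls.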

Enrichment score, inactive:
GDGRFYMMEAI [PGM1_Y66_K68M] 1.09
ICFSDYVEVAD [PHACTR1_Y525_R521C] 1.16
YRDALYKFIVD [PHEX_Y250_M253I] 1.71
LRSELYFLIAR [PHIP_Y16] 3.14
PDNEPYIFKVF [PIK3AP1_Y553] 0.605
FDDIAYIRKTL [PIK3CA_Y1021] 0.868
FDDIAYIQKTL [PIK3CA_Y1021_R1023Q] 0.819
FDDIACIRKTL [PIK3CA_Y1021_Y1021C] 1.16
FDDIANIRKTL [PIK3CA_Y1021_Y1021N] 0.662
QEVLEYFMKQM [PIK3CA_Y1038_A1035V] 1.43
IRTGIYHGGEP [PIK3CA_Y361_V356I] 0.792
EKSREYHRLYE [PIK3R1_Y463_D464H] 0.614
EKSREYDRLFE [PIK3R1_Y463_YF] 0.668
EFHRLYEEFTR [PIK3R1_Y467_D464H_YF] 1.12
EFDRLYEEFTR [PIK3R1_Y467_YF] 0.971
EGQKIYIDDNN [PIP4K2A_Y246] 0.75
EGQKIYIDDNS [PIP4K2A_Y246_N251S] 0.553
HMEAVYIDIAD [PITPNA_Y140_V136M] 1.6

biological target: SHP2 C-SH2 domain wild-type; test: as above; conditions: peptide library: pTyr-Var

Enrichment score, inactive:
GDGRFYMMEAI [PGM1_Y66_K68M] 0.803
ICFSDYVEVAD [PHACTR1_Y525_R521C] 1.38
YRDALYKFIVD [PHEX_Y250_M253I] 1.67
PDNEPYIFKVF [PIK3AP1_Y553] 0.605
FDDIAYIRKTL [PIK3CA_Y1021] 0.765
FDDIAYIQKTL [PIK3CA_Y1021_R1023Q] 0.678
FDDIACIRKTL [PIK3CA_Y1021_Y1021C] 1
FDDIANIRKTL [PIK3CA_Y1021_Y1021N] 0.764
QEVLEYFMKQM [PIK3CA_Y1038_A1035V] 1.65
IRTGIYHGGEP [PIK3CA_Y361_V356I] 0.7
EKSREYHRLYE [PIK3R1_Y463_D464H] 0.497
EKSREYDRLFE [PIK3R1_Y463_YF] 0.654
EFHRLYEEFTR [PIK3R1_Y467_D464H_YF] 1.31
EFDRLYEEFTR [PIK3R1_Y467_YF] 0.873
EGQKIYIDDNN [PIP4K2A_Y246] 0.764
EGQKIYIDDNS [PIP4K2A_Y246_N251S] 0.534
HMEAVYIDIAD [PITPNA_Y140_V136M] 1.32

Enrichment score, active:
LRSELYFLIAR [PHIP_Y16] 3.77

biological target: SHP2 N-SH2 domain L43F; test: as above; conditions: peptide library: pTyr-Var

Enrichment score, active:
LRSELYFLIAR [PHIP_Y16] 3.37

Enrichment score, inactive:
GDGRFYMMEAI [PGM1_Y66_K68M] 0.957
ICFSDYVEVAD [PHACTR1_Y525_R521C] 1.01
YRDALYKFIVD [PHEX_Y250_M253I] 1.8
PDNEPYIFKVF [PIK3AP1_Y553] 0.758
FDDIAYIRKTL [PIK3CA_Y1021] 0.66
FDDIAYIQKTL [PIK3CA_Y1021_R1023Q] 0.832
FDDIACIRKTL [PIK3CA_Y1021_Y1021C] 0.837
FDDIANIRKTL [PIK3CA_Y1021_Y1021N] 0.756
QEVLEYFMKQM [PIK3CA_Y1038_A1035V] 1.32
IRTGIYHGGEP [PIK3CA_Y361_V356I] 0.784
EKSREYHRLYE [PIK3R1_Y463_D464H] 0.54
EKSREYDRLFE [PIK3R1_Y463_YF] 0.547
EFHRLYEEFTR [PIK3R1_Y467_D464H_YF] 0.962
EFDRLYEEFTR [PIK3R1_Y467_YF] 0.856
EGQKIYIDDNN [PIP4K2A_Y246] 0.582
EGQKIYIDDNS [PIP4K2A_Y246_N251S] 0.639
HMEAVYIDIAD [PITPNA_Y140_V136M] 0.871

biological target: SHP2 N-SH2 domain T42A; test: as above; conditions: peptide library: pTyr-Var

Enrichment score, inactive:
GDGRFYMMEAI [PGM1_Y66_K68M] 0.734
ICFSDYVEVAD [PHACTR1_Y525_R521C] 1.16
YRDALYKFIVD [PHEX_Y250_M253I] 1.64
LRSELYFLIAR [PHIP_Y16] 2.63
PDNEPYIFKVF [PIK3AP1_Y553] 0.522
FDDIAYIRKTL [PIK3CA_Y1021] 0.675
FDDIAYIQKTL [PIK3CA_Y1021_R1023Q] 0.656
FDDIACIRKTL [PIK3CA_Y1021_Y1021C] 0.883
FDDIANIRKTL [PIK3CA_Y1021_Y1021N] 0.57
QEVLEYFMKQM [PIK3CA_Y1038_A1035V] 1.24
IRTGIYHGGEP [PIK3CA_Y361_V356I] 0.835
EKSREYHRLYE [PIK3R1_Y463_D464H] 0.494
EKSREYDRLFE [PIK3R1_Y463_YF] 0.631
EFHRLYEEFTR [PIK3R1_Y467_D464H_YF] 0.92
EFDRLYEEFTR [PIK3R1_Y467_YF] 0.776
EGQKIYIDDNN [PIP4K2A_Y246] 0.552
EGQKIYIDDNS [PIP4K2A_Y246_N251S] 0.753
HMEAVYIDIAD [PITPNA_Y140_V136M] 1.44

biological target: SHP2 N-SH2 domain T52S; test: as above; conditions: peptide library: pTyr-Var

Enrichment score, inactive:
GDGRFYMMEAI [PGM1_Y66_K68M] 0.777
ICFSDYVEVAD [PHACTR1_Y525_R521C] 1.18
YRDALYKFIVD [PHEX_Y250_M253I] 1.54
LRSELYFLIAR [PHIP_Y16] 3.06
PDNEPYIFKVF [PIK3AP1_Y553] 0.635
FDDIAYIRKTL [PIK3CA_Y1021] 0.781
FDDIAYIQKTL [PIK3CA_Y1021_R1023Q] 0.703
FDDIACIRKTL [PIK3CA_Y1021_Y1021C] 0.926
FDDIANIRKTL [PIK3CA_Y1021_Y1021N] 0.796
QEVLEYFMKQM [PIK3CA_Y1038_A1035V] 1.15
IRTGIYHGGEP [PIK3CA_Y361_V356I] 0.819
EKSREYHRLYE [PIK3R1_Y463_D464H] 0.564
EKSREYDRLFE [PIK3R1_Y463_YF] 0.61
EFHRLYEEFTR [PIK3R1_Y467_D464H_YF] 1.05
EFDRLYEEFTR [PIK3R1_Y467_YF] 0.854
EGQKIYIDDNN [PIP4K2A_Y246] 0.691
EGQKIYIDDNS [PIP4K2A_Y246_N251S] 0.565
HMEAVYIDIAD [PITPNA_Y140_V136M] 0.961

biological target: SHP2 N-SH2 domain wild-type; test: as above; conditions: peptide library: pTyr-Var

Enrichment score, inactive:
GDGRFYMMEAI [PGM1_Y66_K68M] 0.846
ICFSDYVEVAD [PHACTR1_Y525_R521C] 1.64
YRDALYKFIVD [PHEX_Y250_M253I] 1.61
PDNEPYIFKVF [PIK3AP1_Y553] 0.624
FDDIAYIRKTL [PIK3CA_Y1021] 0.753
FDDIAYIQKTL [PIK3CA_Y1021_R1023Q] 0.726
FDDIACIRKTL [PIK3CA_Y1021_Y1021C] 1.01
FDDIANIRKTL [PIK3CA_Y1021_Y1021N] 0.683
QEVLEYFMKQM [PIK3CA_Y1038_A1035V] 1.28
IRTGIYHGGEP [PIK3CA_Y361_V356I] 0.91
EKSREYHRLYE [PIK3R1_Y463_D464H] 0.636
EKSREYDRLFE [PIK3R1_Y463_YF] 0.556
EFHRLYEEFTR [PIK3R1_Y467_D464H_YF] 1.05
EFDRLYEEFTR [PIK3R1_Y467_YF] 0.78
EGQKIYIDDNN [PIP4K2A_Y246] 0.653
EGQKIYIDDNS [PIP4K2A_Y246_N251S] 0.793
HMEAVYIDIAD [PITPNA_Y140_V136M] 1.3

Enrichment score, active:
LRSELYFLIAR [PHIP_Y16] 4.05
